Measurements: PubChem BioAssay AID485281 (National Center for Advancing Translational Sciences (NCATS), 2010)
Where “and” joins values, the source holds several entries; their conditions need not be identical. Equal entries are not always repeated. Among all 350,000 compounds or so, about 260 (0.074%) were called active. The shares of active, inactive and inconclusive entries below differ from those in the screen. The call rests on the fitted dose curve; in most records, active means well fitted inhibition curve with a large enough effect; inconclusive means small, poorly fitted or top-dose-only effect; inactive means no such curve, though single readings can be large or run the other way. Potencies beside an inconclusive call are fits to weak or partial responses and may not hold up.
Further: nearly all actives have a fitted effect of over 20% in size.
On the % scale 0 is the no-effect control and ±100 the full control effect; potency means the concentration at half of the fitted maximal effect; tags describe the fitted curve by direction and shape.

What follows are compounds tested against Ferritin light chain (Equus caballus) (UniProt P02791) (assay: qHTS Assay for Identification of Novel General Anesthetics). Conditions: apoferritin/1-aminoanthracene competitive binding, fluorescence; activity change, negative = displacement: at 77.5 µM (top of the series).
Chain of UniProt P02791 (P02791 whole entry, looked up): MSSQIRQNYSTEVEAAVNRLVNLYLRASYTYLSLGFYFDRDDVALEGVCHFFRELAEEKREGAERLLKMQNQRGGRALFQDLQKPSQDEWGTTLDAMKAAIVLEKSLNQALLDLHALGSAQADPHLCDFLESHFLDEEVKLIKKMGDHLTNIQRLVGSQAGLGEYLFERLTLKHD
Method in brief: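 Read-out: endpoint 1-AMA fluorescence, excitation 380 nm and emission 535 nm, after compounds sit 10 min at room temperature with 10 uM horse-spleen apoferritin in 50% saturated 1-AMA/PBS. Values come from four-parameter Hill fits.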
In the case of COc1cc(OC)c2c(-c3cccc(-c4cccc(C)c4)c3)cc(=O)oc2c1, the Potency is reported as inconclusive: 28.2 µM [inhibitor, partial curve]. With Cn1c(N)c(C(=O)COC(=O)C2(c3ccccc3F)CCCC2)c(=O)n(C)c1=O the Potency was inconclusive: 31.6 µM [inhibitor, partial curve]. OC[C@@H]1O[C@@H](O)[C@H](O)[C@H](O)[C@@H]1O was tested, and the Potency was “inactive”. CCC(=O)Nc1ccccc1C(=O)OCc1ccc(C(=O)c2ccccc2)cc1 was tested, and the Potency was inconclusive: 28.2 µM [inhibitor, partial curve]. In the case of Cc1cc(C)cc(NC(=O)Cn2cc(C(=O)c3ccncc3)c(=O)c3cc(C)c(C)cc32)c1, the Potency is reported as “inactive”. In the case of O=C(N/N=C/c1cccc(Br)c1)c1ccc(Br)cc1, the Potency is reported as “inactive”. In the case of Cc1ccc(-c2nnc(N3CCN(C(=O)COc4cccc(C)c4)CC3)c3ccccc23)cc1, the Potency is reported as inconclusive: 31.6 µM [inhibitor, single point]. In the case of CC(C)C(CCNC(=O)CN1C(=O)c2ccccc2C1=O)c1ccco1 (stereo unspecified), the Potency is reported as inconclusive: 31.6 µM [inhibitor, partial curve]. With O=C(C1=C(O)C(=O)N(CCN2CCOCC2)C1c1cccc(Br)c1)c1cccs1 (stereo unspecified) the Potency was inconclusive: 10 µM [inhibitor, full curve]. CC(=O)OCC(=O)C1(O)CCC2C3CCC4=CC(=O)C=CC4(C)C3C(O)CC21C (stereo unspecified) was tested, and the Potency was “inactive”. In the case of CSc1ccccc1OCc1cc(C(=O)NCCCn2nc(C)cc2C)no1, the Potency is reported as inconclusive: 25.1 µM [inhibitor, partial curve]. With S=c1nc(-c2ccccc2)oc2c1CCCC2 the Potency was inconclusive: 6.31 µM [inhibitor, partial curve]. In the case of CC(C)c1nnc(NC(=O)CSc2ccccc2)s1, the Potency is reported as inconclusive: 28.2 µM [inhibitor, partial curve]. In the case of COc1cc(/C=C(/NC(=O)c2ccccc2)C(=O)Nc2ccccc2)c([N+](=O)[O-])cc1OC, the Potency is reported as inconclusive: 17.8 µM [inhibitor, partial curve]. With COc1ccc(CCn2c(=S)[nH]c3cc(C(=O)NCc4ccco4)ccc3c2=O)cc1OC the Potency was inconclusive: 3.16 µM [inhibitor, full curve, poor fit]. CC1=NN(c2ccc(C)c(C)c2)C(=O)/C1=C\C=C\c1ccc([N+](=O)[O-])o1 was tested, and the Potency was “inactive”. For O=C(CNCc1cccs1)Nc1ccc(N2CCCCCC2)cc1, the Potency was inconclusive: 35.5 µM [inhibitor, partial curve]. In the case of CSc1nn(Cc2ccccc2C)c(NC(C)=O)c1S(=O)(=O)c1ccc(C)cc1, the Potency is reported as inconclusive: 35.5 µM [inhibitor, partial curve]. CCOC(=O)C(CCCCCOc1ccc([N+](=O)[O-])cc1)C(=O)OCC was tested, and the Potency was inconclusive: 39.8 µM [inhibitor, partial curve]. With CC(C)(C)c1ccc(C2(C)NC(=O)N(CC(=O)Nc3ccc4c(c3)OCO4)C2=O)cc1 (stereo unspecified) the Potency was inconclusive: 50.1 µM [inhibitor, single point]. For CCc1nc(SCC(=O)N2CCCc3ccccc32)c2oc3ccccc3c2n1, the Potency was inconclusive: 5.01 µM [inhibitor, partial curve]. In the case of CCCCc1cc(O)c(CCCC)c(O)c1, the Potency is reported as inconclusive: 14.1 µM [inhibitor, partial curve]. In the case of CCCCCn1c(=O)[nH]c2cc(C(=O)N3CCN(c4cccc(Cl)c4)CC3)ccc2c1=O, the Potency is reported as inconclusive: 3.16 µM [inhibitor, partial curve]. With O=S(=O)(c1ccc(NC(=S)NN=C(Cc2ccccc2)Cc2ccccc2)cc1)N1CCOCC1 the Potency was inconclusive: 11.2 µM [inhibitor, partial curve]. In the case of O=C(Nc1cccc2ccccc12)N1CCN(Cc2ccc3c(c2)OCO3)CC1, the Potency is reported as inconclusive: 56.2 µM [inhibitor, single point]. NS(=O)(=O)c1ccc(NC(=O)COC(=O)CNC(=O)C23CC4CC(CC(C4)C2)C3)cc1 was tested, and the Potency was inconclusive: 14.1 µM [inhibitor, partial curve]. For CCN1C(=O)[C@H]2[C@H]3[C@H](O)[C@H](O)C/C(=N/OC[C@@H](O)COCc4ccco4)[C@@H]3CC[C@@H]2C1=O, the activity change, negative = displacement was inactive: -4.96% [at 15.3 µM] and inactive: -7.05% [at 15.3 µM]. With Oc1ccccc1/C=N/NC(=S)NC1CC2C=CC1C2 (stereo unspecified) the Potency was inconclusive: 31.6 µM [inhibitor, partial curve]. For Cc1ccc(OCC(=O)Nc2cccc(O)c2)cc1C, the Potency was inconclusive: 22.4 µM [inhibitor, partial curve]. In the case of CCc1ccccc1NC(=O)C1=CC(c2cccs2)=NS(=O)(=O)N1C, the Potency is reported as inconclusive: 22.4 µM [inhibitor, partial curve]. Cc1cc(C)n(-c2ccc(C(=O)OC(C)C)cc2)n1 was tested, and the Potency was inconclusive: 31.6 µM [inhibitor, partial curve]. For Oc1ccc(C2C(c3ccccc3)=NN=C(c3ccc(Cl)cc3)N2O)c(O)c1 (stereo unspecified), the Potency was inconclusive: 50.1 µM [inhibitor, single point]. CN(C)CCCNC(=S)Nc1ccc(Oc2ccccc2)cc1 was tested, and the Potency was inconclusive: 14.1 µM [inhibitor, partial curve]. For CC(C)(C)c1ccc(S(=O)(=O)NCCc2ccncc2)cc1, the Potency was inconclusive: 28.2 µM [inhibitor, partial curve]. With O=C(NC1CCCC1)C(c1ccncc1)N(C(=O)c1csnn1)c1ccccc1 (stereo unspecified) the Potency was “inactive”. CCOC(=O)C1=C(C)N(C)C(C)=C(C(=O)OCC)C1c1cccnc1 was tested, and the Potency was “inactive”. For COc1ccc(-c2sc(Nc3ccc(F)c(F)c3F)nc2CCC(=O)NN)cc1, the Potency was “inactive”. OC(COc1ccccc1)CN1CCCC1 (stereo unspecified) was tested, and the Potency was “inactive”. With COc1cc2c(cc1OC)C(C)N(C(=O)c1cc3n(n1)C(C(F)(F)F)CC(c1ccco1)N3)CC2 (stereo unspecified) the Potency was inconclusive: 20 µM [inhibitor, partial curve]. For COc1cccc(OC)c1C(=O)NCCc1csc(-c2ccc(Cl)cc2)n1, the Potency was inconclusive: 11.2 µM [inhibitor, partial curve]. In the case of CC(=O)Nc1cccc(OCC(=O)NS(=O)(=O)c2ccc(C)cc2)c1, the Potency is reported as “inactive”. COC(=O)c1cnc2c(C(F)(F)F)cccc2c1OC was tested, and the Potency was “inactive”. CC(C)c1cc(C(=O)OCC(=O)N2CCN(C(=O)c3ccco3)CC2)c(O)c(C(C)C)c1 was tested, and the Potency was inconclusive: 35.5 µM [inhibitor, single point]. With CC1(C)C(=O)OC(c2cccs2)C2(CCCCC2)C1=O (stereo unspecified) the Potency was inconclusive: 17.8 µM [inhibitor, partial curve]. With CC(C)CCN1C(=O)c2ccc(C(=O)Nc3cccc(S(N)(=O)=O)c3)cc2C1=O the Potency was inconclusive: 50.1 µM [inhibitor, single point]. For Cc1cc(C)c(C(=O)c2ccc(C(=O)N(C(C)C)C(C)C)cc2)c(C)c1, the Potency was inconclusive: 20 µM [inhibitor, partial curve]. CC(C)c1ccc(COc2ccc(C(=O)N3CCOCC3)cc2)cc1 was tested, and the Potency was inconclusive: 35.5 µM [inhibitor, partial curve]. For COc1ccc(CC(=O)OCC(=O)Nc2cccc(Br)c2)cc1, the Potency was inconclusive: 31.6 µM [inhibitor, partial curve]. In the case of COc1cccc(NC(=O)CN(CCc2ccccc2)S(=O)(=O)c2ccc(Cl)cc2)c1, the Potency is reported as “inactive”. With Cc1ccc(S(=O)(=O)N2CCCCCC2)cc1[N+](=O)[O-] the Potency was inconclusive: 28.2 µM [inhibitor, partial curve]. Cc1nn(Cc2ccc(C(=O)N3N=C(C(F)F)CC3(O)C(F)F)cc2)c(C)c1[N+](=O)[O-] (stereo unspecified) was tested, and the Potency was inconclusive: 44.7 µM [inhibitor, partial curve]. In the case of CCOc1ccc(NC(=O)Cn2nnc3c(cnn3-c3ccc(F)cc3)c2=O)cc1, the Potency is reported as “inactive”. For Cc1ccc2c(CC(=O)OC(C)C(=O)NCc3ccc4c(c3)OCO4)coc2c1 (stereo unspecified), the Potency was inconclusive: 28.2 µM [inhibitor, partial curve]. For COc1ccccc1N1CCN(C(=O)c2c(C)oc3ncn(C)c(=O)c23)CC1, the Potency was “inactive”. With CCOc1ccccc1-c1cc(C(=O)N/N=C(\C)c2cccnc2)c2ccccc2n1 the Potency was inconclusive: 7.94 µM [inhibitor, partial curve]. In the case of CC(C)c1ccc(NS(=O)(=O)c2ccc3c(c2)NC(=O)CO3)cc1, the Potency is reported as inconclusive: 39.8 µM [inhibitor, single point]. With CN(C)C=NC(=O)c1cccn1-c1ncc(C(F)(F)F)cc1Cl the Potency was inconclusive: 35.5 µM [inhibitor, single point]. With COC(=O)c1ccccc1NC(=S)NC(=O)C1CCCCC1 the Potency was inconclusive: 35.5 µM [inhibitor, partial curve]. With Cc1ccc2nc(-c3ccncc3)[nH]c2c1 the Potency was “inactive”. In the case of CCc1ccc(NC(=O)Cn2ccn(-c3ccc(C)c(C)c3)c(=O)c2=O)cc1, the Potency is reported as inconclusive: 28.2 µM [inhibitor, single point]. In the case of COc1ccc(C2=NN(C(=O)CSc3nc4ncc(Cl)cc4[nH]3)C(c3ccco3)C2)cc1 (stereo unspecified), the Potency is reported as “inactive”. With OCC1OC(/C=C\c2ccccc2)C=CC1Oc1ccc2c(c1)OCO2 (stereo unspecified) the Potency was inconclusive: 6.31 µM [inhibitor, single point]. O=C(CC(=O)c1ccccc1)Nc1cc(C(F)(F)F)ccc1Cl was tested, and the Potency was inconclusive: 7.94 µM [inhibitor, partial curve]. With O=C(O/N=C1\CCCCC1c1ccc([N+](=O)[O-])cc1[N+](=O)[O-])c1c(F)cccc1F (stereo unspecified) the Potency was inconclusive: 39.8 µM [inhibitor, partial curve]. With N#Cc1cc(Cl)c(N2CCOCC2)cc1C#N the Potency was “inactive”. For CC1CCC2C(=O)N(c3ccc(Cc4ccncc4)cc3)C(=O)C2C1 (stereo unspecified), the Potency was inconclusive: 10 µM [inhibitor, partial curve].
